Where “and” joins values, the source holds several entries; their conditions need not be identical. Identical values can stand only once. Screen size: about 240,000 compounds; about 20 (0.008%) were called active. Inconclusive means that the source gave no clear call. Such entries were picked first, then a sample of the others. Calls come from the whole dose curve; as a rule, active = well fitted inhibition curve with a large enough effect; inconclusive = small, poorly fitted or top-dose-only effect, or effect the other way; inactive = flat fitted curve, though single readings scatter. A potency beside an inconclusive call is a rough fit, not a confirmed value.
Molecular target: Alpha-galactosidase A (Homo sapiens) (UniProt P06280)
Experiment: qHTS Assay for Inhibitors and Activators of Human alpha-Galactosidase From Spleen Homogenate;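 for activity change, negative = inhibition: 0% = enzyme with vehicle and -100% = no enzyme basal signal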
Conditions: 4MU-alpha-Gal fluorescence, 40 min; activity change, negative = inhibition: at 80 µM (top of the series)
Excerpt: NIH Chemical Genomics Center [NCGC] NIH Molecular Libraries Probe Production Centers Network [MLPCN] MLPCN Grant: R03 MH084842-01 Assay Submitter (PI): Wei Zheng NCGC Assay Overview: Alpha-galactosidase is a homodimeric glycoprotein that hydrolyzes the terminal alpha-galactosyl moieties from glycolipids and glycoproteins. Deficiency of this enzyme results in Fabry Disease with progressive accumulation of globotriaosylceramide and other glycosphingolipids in vascular endothelial cells that causes renal failure, myocardial infarction and stroke, and premature death in patients. It has been reported that the improper folding and trafficking of alpha-galactosidase resulting from genetic mutations may account for a significant number of Fabry patients. […] We optimized this alpha-galactosidase assay in 1536-well plate format for identification of novel small molecule inhibitors or activators with structures other than the sugar analogs in order to develop new pharmacological chaperones. In particular, this assay is directed towards discovering compounds active in more natural setting, tissue homogenate, that may have been missed by screens of the purified enzyme under more stringent conditions.
NCGC Assay Protocol Summary: This is a fluorogenic enzyme assay with 4-methylumbelliferyl-alpha-D-galactopyranoside as the substrate and human spleen homogenate containing alpha-galactosidase as the enzyme preparation. Upon hydrolysis of this fluorogenic substrate, the resulting product, 4-methylumbelliferone (which excites at 365 nm and emits at 440 nm) can be detected by a fluorescence plate reader. Data were normalized to the controls for basal activity (without enzyme) and 100% activity (with enzyme). The AC50 values were determined from concentration-response data modeled with the standard Hill equation. Assay buffer: 50 mM citric acid (titrated with potassium phosphate to pH 5.0), 0.01% Tween-20 (pH 5.0 is an optimal condition for this enzyme assay) 1536-well assay protocol for the alpha-galactosidase from human spleen homogenate: (1) Add 2 ul/well spleen homogenate (1 ug) (2) Add 23 nL compounds in DMSO solution. The final titration was 0.5 nM to 58 uM. (3) Add 2 ul of substrate (1 mM final) (4) Incubate at 37C for 40 min (5) Add 2 ul stop solution (1M NaOH and 1M Glycine mixture, pH 10) (6) Detect the assay plate in a ViewLux plate reader (PerkinElmer) with Ex=365 nm and Em=440nm. Keywords: Alpha-galactosidase, Fabry Disease, pharmacological chaperone, chaperone therapy, high throughput screening, alpha- galactosidase inhibitor, MLSMR, MLSCN, NIH Roadmap, qHTS and NCGC
Potency is the fitted concentration of half-maximal effect; tags give direction and shape of the fitted curve.

UniProt P06280, sequence (P06280 whole entry, looked up): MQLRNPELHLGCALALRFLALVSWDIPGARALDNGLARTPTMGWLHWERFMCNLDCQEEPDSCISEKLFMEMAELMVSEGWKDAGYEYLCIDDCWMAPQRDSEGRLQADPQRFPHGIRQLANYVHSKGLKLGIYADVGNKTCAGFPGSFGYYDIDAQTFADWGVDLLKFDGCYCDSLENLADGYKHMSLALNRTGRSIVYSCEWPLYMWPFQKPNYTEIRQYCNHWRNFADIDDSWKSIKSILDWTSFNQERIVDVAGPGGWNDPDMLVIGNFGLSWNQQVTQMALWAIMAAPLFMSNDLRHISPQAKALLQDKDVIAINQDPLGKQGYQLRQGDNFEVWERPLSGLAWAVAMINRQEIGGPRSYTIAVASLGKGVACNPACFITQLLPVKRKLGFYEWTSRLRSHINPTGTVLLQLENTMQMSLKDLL

SMILES | activity change, negative = inhibition | Potency
O=C(CC(c1ccccc1)c1ccccc1O)NCc1ccccc1Cl (stereo not given) | inactive: -4.91% | 
COc1ccc(C(=O)CNc2ccc(C)cc2C)cc1 | inactive: 5.2% | 
CCCCCNC(=O)c1ccc2c(=O)n(CCOC)c(=O)[nH]c2c1 |  | inconclusive: 39.8 µM [activator, partial curve]
Cc1cc(NCCN2CCOCC2)n2c(nc3ccccc32)c1C#N |  | inconclusive: 8.91 µM [activator, partial curve]
NC(=O)COC(=O)c1cc(Cl)cc(Cl)c1N |  | inconclusive: 31.6 µM [activator, partial curve]
Cc1cccc(NC(=O)CC2SC(=NC3CCCCC3)NC2=O)c1 (stereo not given) |  | inconclusive: 50.1 µM [inhibitor, single point]
COC(=O)c1ccc(C(=O)OC)c(N)c1 |  | inconclusive: 35.5 µM [activator, partial curve]
Cc1[nH][nH]c(=O)c1C(c1cc([N+](=O)[O-])ccc1O)c1c(C)[nH][nH]c1=O |  | inconclusive: 50.1 µM [inhibitor, single point]
COc1ccc(NC(=O)CNc2ccc(C#N)cc2)cc1 | inactive: 7.2% | 
CC(C)(C)N1C(=O)[C@H]2[C@@H]3[C@H](O)[C@H](O)CC(=O)[C@H]3CC[C@H]2C1=O | inactive: 2.8% [at 17.5 µM] and inactive: -7.1% [at 17.5 µM] | 
CCN1C(=O)[C@H]2[C@@H]3[C@H](O)[C@H](O)CC(=O)[C@H]3CC[C@H]2C1=O | inactive: -15.5% [at 17.5 µM] and inactive: 0.0782% [at 17.5 µM] | 
C=CCSc1nnc(-c2ccc(Cl)cc2Cl)o1 | inactive: -8.71% | 
CCNc1ncc2ncc(=O)n(CCOC)c2n1 |  | inconclusive: 31.6 µM [activator, partial curve]
O=C(COc1ccc(Cl)cc1Cl)NCc1ccncc1 |  | inconclusive: 2.24 µM [activator, full curve]
Cc1cc(NC(=O)CSc2nnc(-c3cccs3)n2N)no1 |  | inconclusive: 14.1 µM [inhibitor, partial curve]
COc1cc2nc(N(C)CCCNC(=O)[C@@H]3CCCO3)nc(N)c2cc1OC |  | inconclusive: 25.1 µM [activator, single point]
COc1cc(C2C3=C(CCCC3=O)Nc3[nH]n(-c4ccccc4)c(=O)c32)ccc1O (stereo not given) |  | inconclusive: 50.1 µM [inhibitor, single point]
Cc1cc(C)nc(N(C#N)CN2C(=O)c3ccccc3C2=O)n1 |  | inconclusive: 35.5 µM [inhibitor, partial curve]
CCOC(=O)c1cc2c(=O)n3ccccc3nc2n(Cc2ccco2)c1=NC(=O)c1cccnc1 |  | inconclusive: 35.5 µM [activator, partial curve]
CCCCOC(=O)Nc1ccc(S(=O)(=O)Nc2nc(C)cc(C)n2)cc1 |  | inconclusive: 31.6 µM [inhibitor, single point]
COc1cccc(C2=CC(c3ccc(N(C)C)cc3)n3ncnc3N2)c1 (stereo not given) |  | inconclusive: 35.5 µM [activator, single point]
C/C(=N\NC(=O)CC#N)c1cc2ccc(O)cc2oc1=O |  | inconclusive: 35.5 µM [activator, partial curve]

SMILES | activity change, negative = inhibition | Potency
Cc1ccc(Cl)cc1N1CCN(C(=O)Cn2ccc3ccccc3c2=O)CC1 | inactive: -1.15% | 
C/C(=C1/SC(=S)N(CCC(=O)O)C1=O)c1ccc(O)cc1 |  | inconclusive: 44.7 µM [activator, single point]
Cc1cccc(S(=O)(=O)C(C#N)c2nc3ccccc3nc2N2CCCC2)c1 (stereo not given) |  | inconclusive: 28.2 µM [activator, single point]
CCc1cc(=O)oc2c(CN3CCCC3)c(O)c(Cl)cc12 |  | inconclusive: 35.5 µM [activator, partial curve]
N#C/C(=C\c1cn(Cc2cccc(F)c2)c2ccccc12)C(=O)NCc1ccco1 |  | inconclusive: 44.7 µM [inhibitor, single point]
Fc1cccc(NC(=S)NNc2c3ccccc3nc3ccccc23)c1 |  | inconclusive: 35.5 µM [activator, partial curve]
Cc1occc1C(=O)NC1CCCCCC1 |  | inconclusive: 7.94 µM [activator, single point]
CN(C)c1ncc2nc(-c3cc(F)cc(F)c3)c(=O)n(C3CC3)c2n1 |  | inconclusive: 25.1 µM [activator, partial curve, poor fit]
COc1ccc(CNC(=O)CSc2nc3[nH]ncc3c(=O)n2-c2ccccc2Br)cc1 | inactive: 3.78% | 
Cc1cccnc1NC(=O)c1ccc([N+](=O)[O-])o1 |  | inconclusive: 14.1 µM [activator, partial curve]
C=C1c2cc(OC)ccc2NC(=O)N1CC |  | inconclusive: 39.8 µM [activator, single point]
O=C(O)CNC(=O)c1ccccc1F |  | inconclusive: 50.1 µM [inhibitor, single point]
C=CCn1cc(-c2ccccc2)cc(C#N)c1=O |  | inconclusive: 31.6 µM [activator, partial curve]
O=C(CCCOc1ccc(Cl)cc1Cl)N1CCc2ccccc2C1 | inactive: 2.37% | 
CCOC(=O)C1CCN(C(=O)c2cc3c(=O)n4ccccc4nc3n2C)CC1 |  | inconclusive: 31.6 µM [activator, partial curve]
CCc1c2c(nc3c(C(C)C)cccc13)-c1cccc(=O)n1C2 |  | inconclusive: 28.2 µM [activator, partial curve]
COC(=O)c1c(SCC(=O)Nc2ccc(C)cc2)nc(=O)[nH]c1C |  | inconclusive: 35.5 µM [activator, single point]
COc1ccc(Cn2c(N)c(C#N)c3nc4ccccc4nc32)cc1 |  | inconclusive: 35.5 µM [activator, partial curve]
Cc1[nH]c2ccccc2c1C(O)CN1CCN(c2cccc(C(F)(F)F)c2)CC1 (stereo not given) |  | active: 28.2 µM
Cn1c(-c2cc3ccc(OC(=O)C(C)(C)C)cc3oc2=O)nc2ccccc21 |  | inconclusive: 39.8 µM [activator, partial curve]
N#C/C(=C\c1cccs1)C(=O)NCc1ccccc1 |  | inconclusive: 50.1 µM [inhibitor, single point]
Cc1ccc(S(=O)(=O)NC(CC(C)C)C(=O)Oc2ccc3c4c(c(=O)oc3c2)CCC4)cc1 (stereo not given) |  | inconclusive: 35.5 µM [activator, partial curve]

SMILES | activity change, negative = inhibition | Potency
N#C/C(C(N)=O)=C1/SC(Cc2ccc(F)cc2)C(=O)N1c1ccccc1 (stereo not given) |  | inconclusive: 2 µM [inhibitor, full curve, poor fit]
N#C/C(=C\c1ccc(N2CCCCC2)o1)C(=O)Nc1cccc(Br)c1 | inactive: 1.13% | 
NS(=O)(=O)c1ccc(CCNc2nc3c(-c4cccc(F)c4)nnn3c3ccccc23)cc1 |  | inconclusive: 39.8 µM [activator, single point]
N#Cc1ccc(/C=C\c2nccc3c2[nH]c2ccccc23)cc1 |  | inconclusive: 35.5 µM [activator, partial curve]
COc1cc2nc(=S)n3[nH]c(CCn4nc(C)cc4C)nc3c2cc1OC |  | inconclusive: 31.6 µM [inhibitor, single point]
CCCCCn1c(=O)c(C(=O)c2ccccc2)nc2ccccc21 |  | inconclusive: 0.891 µM [inhibitor, full curve, poor fit]
Cc1cccc(-n2c(N)c(C(=O)NCCN3CCOCC3)c3nc4ccccc4nc32)c1 |  | inconclusive: 39.8 µM [activator, partial curve]
CCCCNC(=O)c1ccccc1C(=O)NCCCC | inactive: -8.09% | 
Cc1nc2ccccc2n1C(=O)c1ccccc1[N+](=O)[O-] | inactive: 4.39% | 
NC(=NCc1ccccc1)NC(=O)c1nc(Cl)c(N)nc1N |  | inconclusive: 35.5 µM [activator, partial curve] and inconclusive: 44.7 µM [activator, partial curve] and inconclusive: 31.6 µM [activator, partial curve]
CNC(=O)/C(C#N)=C/c1c(N(Cc2ccccc2)Cc2ccccc2)nc2ccccn2c1=O |  | inconclusive: 7.08 µM [activator, full curve]
NS(=O)(=O)c1ccc(N2N=C(c3ccccc3)CC2c2ccccc2)cc1 (stereo not given) |  | inconclusive: 31.6 µM [activator, partial curve]
O=C(NCc1ccc2c(c1)OCO2)c1ccc(S(=O)(=O)C(F)F)cc1 |  | inconclusive: 50.1 µM [inhibitor, single point]
CC(=O)c1c(C)[nH]c(C(=O)COc2cc(C)cc(C)c2)c1C |  | inconclusive: 28.2 µM [activator, single point]
COc1ccc(-c2cn3cccnc3n2)cc1Br |  | inconclusive: 31.6 µM [activator, single point]
CC1(C)Cc2c(C#N)c(NCCO)nc(-c3ccco3)c2CO1 |  | inconclusive: 35.5 µM [activator, partial curve]
CC1=C(C#N)C(c2cccnc2)C2=C(CC(C)(C)CC2=O)N1 (stereo not given) |  | inconclusive: 35.5 µM [activator, partial curve]
CCCCCn1c(N)c(C#N)c2nc3ccccc3nc21 |  | inconclusive: 35.5 µM [activator, partial curve]
O=c1ccc2ccc(O)cc2o1 |  | inconclusive: 35.5 µM [activator, partial curve]
O=C(NCC1CCCO1)c1cc(-c2ccco2)nc2ccccc12 (stereo not given) |  | inconclusive: 31.6 µM [activator, partial curve]
Cc1cc(NCCCCO)n2c(nc3ccccc32)c1C#N |  | inconclusive: 35.5 µM [activator, partial curve]

Source: PubChem BioAssay AID2107 (National Center for Advancing Translational Sciences (NCATS), 2009)
